Laboratory results from PubChem BioAssay AID588342 (National Center for Advancing Translational Sciences (NCATS), 2011).
The whole screen tested about 360,000 compounds, of which about 25,000 (6.9%) were called active. This list was built around the results that the source calls inconclusive (neither active nor inactive); the mix of calls is not that of the screen. Calls follow the shape of the dose curve; as a rule, active = well fitted inhibition curve with a large enough effect; inconclusive = small, poorly fitted or top-dose-only effect; inactive = flat fitted curve, though single readings scatter. Potencies beside an inconclusive call are fits to weak or partial responses and may not hold up.

molecular target: Luciferin 4-monooxygenase (Photinus pyralis) (UniProt P08659); test: qHTS profiling assay for firefly luciferase inhibitor/activator using purifed enzyme and Km concentrations of substrates (counterscreen for miR-21 project); settings: purified FLuc, luminescence inhibition; series mostly up to 57.5 µM; activity change, negative = inhibition: at the top concentration; also: nearly all actives have a fitted effect of over 55% in size;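 as to activity change, negative = inhibition: plate controls were vehicle for no effect and reference inhibitor for full effect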
Outline: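 Purified P. pyralis luciferase, 10 nM final, with Km-level 10 uM D-luciferin and 10 uM ATP in 50 mM Tris acetate pH 7.5, 10 mM Mg acetate, 0.01% Tween-20, 0.05% BSA; 6-point qHTS titration about 60 µM downward; luminescence read.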
Potency is read from the fitted curve at half-maximal effect; tags tell the direction and shape of the fitted curve.

Sequence of UniProt P08659 (P08659 whole entry, looked up): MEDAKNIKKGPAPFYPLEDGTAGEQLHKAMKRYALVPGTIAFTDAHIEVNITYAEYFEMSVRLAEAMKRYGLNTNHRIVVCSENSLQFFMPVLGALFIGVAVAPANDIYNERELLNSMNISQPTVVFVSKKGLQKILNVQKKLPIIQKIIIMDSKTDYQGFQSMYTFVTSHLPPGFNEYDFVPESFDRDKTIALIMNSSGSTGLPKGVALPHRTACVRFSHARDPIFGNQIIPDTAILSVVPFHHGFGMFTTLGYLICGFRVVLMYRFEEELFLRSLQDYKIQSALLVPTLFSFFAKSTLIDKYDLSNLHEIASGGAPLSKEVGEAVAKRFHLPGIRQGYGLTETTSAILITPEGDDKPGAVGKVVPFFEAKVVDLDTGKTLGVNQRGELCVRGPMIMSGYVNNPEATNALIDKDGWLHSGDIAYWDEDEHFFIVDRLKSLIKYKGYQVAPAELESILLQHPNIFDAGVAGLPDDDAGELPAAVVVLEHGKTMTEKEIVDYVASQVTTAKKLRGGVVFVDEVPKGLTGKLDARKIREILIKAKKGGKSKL

Row | Compound | Potency | activity change, negative = inhibition
1 | O=C(CCSCc1cccc(Cl)c1)NCc1ccc(F)cc1Cl | inconclusive: 26.9 µM [inhibitor, partial curve, poor fit] | 
2 | CCc1ccc(Nc2n[n+](-c3ccccc3)c(-c3ccc(N(CC)CC)cc3)s2)cc1 | inconclusive: 21.3 µM [inhibitor, single point] | 
3 | Cc1ccc(C2CCN(C(=S)Nc3cccc(C)c3)C2)cc1 (stereo not drawn) | inconclusive: 37.9 µM [inhibitor, partial curve, poor fit] | 
4 | Cc1ccc(C(=O)Nc2ccccc2C(=O)NC2CCCCC2)cc1S(=O)(=O)N1CCOCC1 | inconclusive: 16.9 µM [inhibitor, partial curve] | 
5 | Cc1ccc2[nH]c(CSc3nnc(NC(=O)c4ccccc4F)s3)cc(=O)c2c1 | inconclusive: 37.9 µM [inhibitor, single point] | 
6 | Cc1ccc(OCc2cc(C(=O)N3CCC(C(O)C(C)C)CC3)no2)cc1C (stereo not drawn) | inconclusive: 33.8 µM [inhibitor, single point] | 
7 | Cc1ccc(C(=O)c2cc3ccccc3o2)cc1C | active: 4.78 µM | 
8 | COc1ccc2oc(-c3ccc(C)c(NC(=O)c4ccc(-c5ccccc5[N+](=O)[O-])o4)c3)nc2c1 | inconclusive: 30.1 µM [inhibitor, partial curve, poor fit] | 
9 | COc1ccccc1N1CCN(C(=S)NC(=O)/C=C/c2ccc(F)cc2)CC1 | inconclusive: 23.9 µM [inhibitor, partial curve] | 
10 | CC(C)CNC(=O)Nc1ccc(F)c(Cl)c1 | inconclusive: 37.9 µM [inhibitor, partial curve, poor fit] | 
11 | Cc1c(Cl)cccc1NC(=O)CSc1nc2ncccc2o1 |  | inactive: -7.62%
12 | O=C1NC(=O)/C(=C\c2ccc(Oc3cnccn3)cc2)S1 | active: 13.5 µM | 
13 | O=C1N/C(=N/Nc2ccccc2)S/C1=C\c1ccccc1 | active: 13.5 µM | 
14 | O=C(N/N=C/c1coc2ccccc2c1=O)c1cn(-c2ccccc2)nc1-c1ccccc1 | inconclusive: 21.3 µM [inhibitor, single point] | 
15 | Cc1cccc(C2Nc3ccccc3C(=O)N2CCc2ccccc2)n1 (stereo not drawn) | inconclusive: 37.9 µM [inhibitor, single point] | 
16 | COc1cccc(-c2noc(-c3cccs3)n2)c1 | active: 2.13 µM | 
17 | COc1ccc(NS(=O)(=O)c2ccc(N3CCCC3)c(NC(=S)Nc3cccc(C)c3C)c2)cc1 | inconclusive: 23.9 µM [inhibitor, partial curve, poor fit] | 
18 | O=C(O)CC/C(=C\c1ccc2c(c1)OCO2)c1nc2ccccc2s1 | inconclusive: 37.9 µM [inhibitor, single point] | 
19 | Cc1ccc(-c2cn(-c3ccccc3)c(SCC(=O)NC3CCS(=O)(=O)C3)n2)cc1C (stereo not drawn) | inconclusive: 4.26 µM [inhibitor, partial curve, poor fit] | 
20 | O=c1cc(CCl)nc2sc3ccccc3n12 |  | inactive: -0.142%
21 | CCc1nc(Nc2ccc(NC(C)=O)cc2)c2oc3ccccc3c2n1 | inconclusive: 13.5 µM [inhibitor, partial curve] | 
22 | Cc1ccc(S(=O)(=O)c2[nH]c(-c3ccccc3)nc2SCCC(=O)O)cc1 | inconclusive: 26.9 µM [inhibitor, single point] | 
23 | N#Cc1cccc(NC(=O)Cc2ccsc2)c1 |  | inactive: -2.95%

Row | Compound | Potency | activity change, negative = inhibition
24 | Cc1ccc(-c2cc(-c3c(C)nn(C)c(=O)c3N)[nH]n2)cc1 | inconclusive: 26.9 µM [inhibitor, single point] | 
25 | O=C(Nc1ccc2nccnc2c1)c1cnccn1 | inconclusive: 21.3 µM [inhibitor, single point] | 
26 | N/C(Cc1ccc([N+](=O)[O-])cc1)=N\OC(=O)c1ccccc1F | inconclusive: 30.1 µM [inhibitor, partial curve, poor fit] | 
27 | COc1ccccc1Nc1nc(-c2sc(N)nc2C)cs1 | inconclusive: 23.9 µM [inhibitor, single point] | 
28 | CCn1c2ccc(Cl)cc2c2nc3ccccc3nc21 | inconclusive: 37.9 µM [inhibitor, partial curve, poor fit] | 
29 | COc1ccccc1-n1c(=S)[nH]c2c(sc(=S)n2-c2ccc(C)cc2C)c1=O | inconclusive: 15.1 µM [inhibitor, partial curve] | 
30 | COc1ccc(-c2noc(N3CCC(C(=O)N(C)c4ccccc4)CC3)n2)cc1 | inconclusive: 37.9 µM [inhibitor, single point] | 
31 | COc1ccc(Cn2c(CO)cnc2SCc2ccc(F)cc2)cc1 | inconclusive: 26.9 µM [inhibitor, partial curve, poor fit] | 
32 | COc1ccc2[nH]c(=O)c(CN(C(=O)C3CCCO3)c3ccc(C)c(C)c3)cc2c1 (stereo not drawn) |  | inactive: 3.49%
33 | Cc1ccc(NC(=O)COC(=O)C2CC3CCCC(C2)C3=O)c([N+](=O)[O-])c1 (stereo not drawn) |  | inactive: -13.1%
34 | CCOc1ccc(C2C(C(=O)c3cccs3)=C(O)C(=O)N2Cc2cccnc2)cc1 (stereo not drawn) | inconclusive: 37.9 µM [inhibitor, partial curve, poor fit] | 
35 | CCC(=O)N1N=C(c2ccccc2)CC1c1ccc([N+](=O)[O-])cc1 (stereo not drawn) |  | inactive: 3.68%
36 | COc1ccc(Cc2noc(-c3ccccc3)n2)cc1OC |  | inactive: -9.98%
37 | COc1ccc(S(=O)(=O)c2nnn(-c3ccccc3F)c2C)cc1 |  | inactive: -8.69%
38 | C=CCS(=O)(=O)N1CCCC(Cc2ccccc2C)(C(=O)OCC)C1 (stereo not drawn) |  | inactive: 0.514%
39 | COc1ccc2c(c1OC)C(=O)N1c3cccc(Cl)c3C(=O)OC21 (stereo not drawn) | inconclusive: 8.49 µM [inhibitor, partial curve, poor fit] | 
40 | CC(=O)N(C1=C(N)C(=O)c2ccccc2C1=O)C(C)C |  | inactive: -2.55%
41 | CCOc1ccc2nc(-c3ccccc3)nc(SCC(=O)OC)c2c1 | inconclusive: 26.9 µM [inhibitor, partial curve, poor fit] | 
42 | N#CC1=C2SCN(C3CCCCC3)CN2C(=O)CC1c1c(F)cccc1Cl (stereo not drawn) | inconclusive: 9.53 µM [inhibitor, partial curve, poor fit] | 
43 | CC1(C)CC(=O)C(C=Nc2ccc3[nH]ncc3c2)=C(O)C1 | inconclusive: 23.9 µM [inhibitor, single point] | 
44 | Cn1c(SCC(=O)CC(=O)Nc2ccccc2)nnc1-c1ccc(O)cc1 | inconclusive: 30.1 µM [inhibitor, partial curve, poor fit] | 
45 | CCOC(=O)c1cnc(-c2ccccc2O)nc1Cl | inconclusive: 23.9 µM [inhibitor, single point] | 
46 | Cc1ccccc1CSCc1nc2ccccc2[nH]1 | inconclusive: 26.9 µM [inhibitor, single point] | 

Row | Compound | Potency | activity change, negative = inhibition
47 | CCc1ccc2c(c1)/C(=C/C(=O)c1cccs1)C(=O)N2 | inconclusive: 19 µM [inhibitor, partial curve] | 
48 | Cc1occc1C(=O)NNC(=O)COc1ccc(Br)cc1Br | inconclusive: 4.78 µM [inhibitor, full curve] | 
49 | O=C1N=C(N2CCN(c3ccccc3)CC2)S/C1=C\c1ccco1 | inconclusive: 23.9 µM [inhibitor, partial curve] | 
50 | Cc1ccsc1C(=O)NNC(=O)C1CC=CCC1C(=O)O (stereo not drawn) | inconclusive: 42.6 µM [inhibitor, partial curve, poor fit] | 
51 | Nc1cc(=O)[nH]c(SCC(=O)Nc2nc3ccc([N+](=O)[O-])cc3s2)n1 | inconclusive: 37.9 µM [inhibitor, single point] | 
52 | Cc1ccc2sc(NC(=O)C3CC3)nc2c1C | active: 16.9 µM | 
53 | CCC(=O)Nc1cccc(-c2nc3ccccc3c(=O)o2)c1 | inconclusive: 21.3 µM [inhibitor, single point] | 
54 | CCCCc1c(O)nc2sc3cc(OC)ccc3n2c1=O | active: 10.7 µM | 
55 | C#CCOCCOCCOCCNc1nc(N2CCN(C(=O)CCCCCCCCCCNC(=O)[C@H]([C@@H](C)CC)n3cc(CCCCN=C(N)N)nn3)CC2)nc(N2CCN(C(=O)CCCCCCCCCCNC(=O)[C@H](CCCN=C(N)N)n3cc(C[C@@H](C)CC)nn3)CC2)n1 | inconclusive: 23.9 µM [inhibitor, single point] | 
56 | CC(=O)c1c(Nc2ccc3c(c2)OCCO3)oc(C)cc1=O | active: 26.9 µM | 
57 | CS(=O)(=O)c1ccc(Cl)c(NC(=O)CSc2nc3ccccc3c(=O)n2Cc2ccco2)c1 |  | inactive: -0.155%
58 | O=C(CN1CCCCCC1)Nc1c(Cl)cc(Cl)cc1Cl | active: 15.1 µM | 
59 | O=C(Cc1cccs1)N=Nc1c(O)[nH]c2ccccc12 | inconclusive: 23.9 µM [inhibitor, partial curve] | 
60 | O=C(NCCCc1nc2ccccc2n1Cc1ccccc1Cl)c1ccco1 |  | inactive: -6.23%
61 | COc1ccc(CN2C(=O)c3ccccc3C(/C=N\OCc3ccc(F)cc3)C2=O)cc1 (stereo not drawn) | active: 21.3 µM | 
62 | CSc1nc2[nH]c3c(c2c2ncnn12)CCCC3 | inconclusive: 42.6 µM [inhibitor, partial curve, poor fit] | 
63 | N#C/C(=C(/O)CN1CCCC1)c1nc(-c2ccccc2)cs1 | active: 19 µM | 
64 | COc1cc(C2C(C#N)=C(N)OC3=C2C(=O)CC(C)(C)C3)ccc1OCCN1CCOCC1 (stereo not drawn) |  | inactive: 1.58%
65 | COc1ccc(-n2nc(C(=O)NCC(=O)N3CCN(Cc4ccccc4)CC3)c3ccccc3c2=O)cc1 | inconclusive: 23.9 µM [inhibitor, partial curve] | 
66 | COc1ccc(/C=C2\N=C(SC)N(c3ccccc3OC)C2=O)cc1 | inconclusive: 23.9 µM [inhibitor, partial curve, poor fit] | 
67 | O=C(N/N=C/c1cccnc1)c1cccc(NC(=O)c2ccc(Cl)cc2)c1 |  | inactive: -0.0264%
68 | COc1cccc(OC(=O)CSc2nnc(-c3ccccc3Br)o2)c1 | inconclusive: 37.9 µM [inhibitor, partial curve, poor fit] | 
